Results from PubChem BioAssay AID1345083 (National Center for Advancing Translational Sciences (NCATS), 2018).
The whole screen tested about 94,000 compounds, of which about 6,200 (6.6%) were called active. The shares of active, inactive and inconclusive entries below differ from those in the screen. Calls come from the whole dose curve; as a rule, active = well fitted inhibition curve with a large enough effect; inconclusive = small, poorly fitted or top-dose-only effect; inactive = flat fitted curve, though single readings scatter. Where the call is inconclusive, the potency comes from a doubtful curve fit.

test: Cytotoxic Profiling in HEK 293 Cell Line of Diverse Libraries Using Quantitative High-Throughput Screening; details: HEK 293 viability, ATP luminescence (CellTiter-Glo), 48-72 h; activity change, negative = cytotoxicity: at 115 µM (top of the series) unless noted; series mostly up to 115 µM; note: nearly all actives have a fitted effect of over 60% in size
Summary of the method: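 Cytotoxicity was scored by loss of ATP-coupled luminescence (CellTiter-Glo) in HEK 293 cells. Compound treatment ran 48 or 72 hr at 37 degree Celsius, 5% CO2, 95% humidity.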
% is set by controls: 0 for no effect and ±100 for the full control effect; potency is the fitted concentration of half-maximal effect; tags give direction and shape of the fitted curve.

Q: With `O=C(O)c1ccccc1CN1CCC2(Cc3ccccc3CNC2=O)C1` (stereo not given) as the compound, how does the “outcome” value read?
A: inactive

Q: Which Potency does the source give for `Cc1noc(C)c1[S+](=O)([O-])N1CCCC2(COc3ccccc3C(=O)N2)C1` (stereo not given) here?
A: active: 22.4 µM

Q: With `CN(C)c1ccc(-c2noc([C@@H]3CCCN3Cc3nc4ccccc4n3C)n2)cn1` as the compound, how does the Potency read?
A: active: 112 µM

Q: Which “activity change, negative = cytotoxicity” value does the source give for `Cc1cnc(C(=O)N2[C@@H]3CC[C@H]2CC(NC(=O)c2ccncc2)C3)cn1` (stereo not given in full) here?
A: inactive: -0.651%

Q: Which Potency does the source give for `O=C(Cc1ccccc1)NC1CCCc2c1[nH]c1ccccc21` (stereo not given) here?
A: inconclusive: 50.1 µM [inhibitor, partial curve, poor fit]

Q: Which Potency does the source give for `COc1ccc(N2C(=O)CSC23CCN(C(=O)NCc2ccccc2)CC3)cc1` here?
A: inconclusive: 100 µM [inhibitor, single point]

Q: With `COc1c(F)cccc1C(=O)N1CCc2onc(-c3ccccc3F)c2C1` as the compound, how does the Potency read?
A: inconclusive: 39.8 µM [inhibitor, full curve, poor fit]

Q: Which Potency does the source give for `Cc1cc(C)cc(C(=O)N2CCCC3(C2)NC(=O)N(Cc2cccc(Cl)c2)C3=O)c1` (stereo not given) here?
A: inconclusive: 89.1 µM [inhibitor, partial curve, poor fit]

Q: Which Potency does the source give for `COCc1cc(=O)n(CC(=O)Nc2ccc(F)c(Cl)c2)c(N2CCOCC2)n1` here?
A: inconclusive: 89.1 µM [inhibitor, single point]

Q: For `COc1cccc(N2CCN(C(=O)c3cn4ccnc(-c5ccccc5)c4n3)CC2)c1`, which Potency is on record?
A: inconclusive: 44.7 µM [inhibitor, partial curve, poor fit]

Q: For `COc1ccc(C2Cn3nnc(C(=O)N4CCN(C(=O)Cc5ccccc5Cl)CC4)c3CO2)cc1` (stereo not given), which Potency is on record?
A: inconclusive: 89.1 µM [inhibitor, single point]

Q: With `COc1ccc(Nc2ccc3nnc(-c4ccccn4)n3n2)cc1` as the compound, how does the Potency read?
A: active: 70.8 µM

Q: Which “activity change, negative = cytotoxicity” value does the source give for `Cn1ccnc1CN1C(=O)CO[C@H]2CN(C(=O)c3cnccn3)C[C@H]21` here?
A: inactive: 2.87% [at 172 µM]

Q: For `COCc1ccc2c(c1)c(OC(C)(C)C(=O)NC(C)C)nn2Cc1cccc(OC)c1`, which Potency is on record?
A: inconclusive: 89.1 µM [inhibitor, partial curve]

Q: With `CCOc1ccccc1NC(=O)CN1C(=O)C(c2ccccc2)=NC12CCCCCC2` as the compound, how does the Potency read?
A: inconclusive: 50.1 µM [inhibitor, partial curve, poor fit]

Q: For `COc1ccccc1/C=C/CN1CCCC(CCC(=O)Nc2ccccc2F)C1` (stereo not given), which Potency is on record?
A: active: 44.7 µM

Q: For `CC(C)(C(=O)O)c1cnc(N2CC[C@@H](O)C2)nc1N1CCOCC1`, which “outcome” value is on record?
A: inactive

Q: For `COC(=O)[C@H](Cc1ccc(OC)cc1)NC(=O)[C@H]1CN(C(=O)c2cccnc2)CCN1S(C)(=O)=O`, which “activity change, negative = cytotoxicity” value is on record?
A: inactive: -3.67%

Q: For `c1coc(-c2ccnc(N[C@H]3CO[C@H]4[C@@H]3OC[C@@H]4NCC3CCCCC3)n2)c1`, which Potency is on record?
A: inconclusive: 100 µM [inhibitor, partial curve]

Q: Which Potency does the source give for `Cc1cccc(-c2noc([C@@H]3C[C@@H](O)CN3Cc3ccccn3)n2)c1` here?
A: inconclusive: 100 µM [inhibitor, partial curve, poor fit]

Q: Which “activity change, negative = cytotoxicity” value does the source give for `CC(C)N1CCN(c2ccc3nnc(C4CCC4)n3n2)CC1` here?
A: inactive: 0.402%

Q: For `O=C1CC2(CCN(C(=O)C3CCN(C(=O)c4ccc(C(F)(F)F)cc4)CC3)CC2)Oc2ccccc2N1`, which Potency is on record?
A: inconclusive: 70.8 µM [inhibitor, partial curve, poor fit]

Q: With `COc1cccc(C(=O)N2CCC[C@H]2c2nc(-c3ccc(C)cc3)no2)c1` as the compound, how does the Potency read?
A: inconclusive: 70.8 µM [inhibitor, single point]

Q: Which Potency does the source give for `CN1C[C@H]2CN(Cc3ccc(C(F)(F)F)cc3)CCN2C1=O` here?
A: inconclusive: 56.2 µM [inhibitor, full curve]

Q: Which “activity change, negative = cytotoxicity” value does the source give for `Cc1ccc([S+](=O)([O-])NCCNC(=O)c2ccc(-c3cncnc3)cc2)cc1` here?
A: inactive: -28.4%

Q: For `Cc1ccc(C)c(-n2nc(-c3c(C)nc4scc(CC(=O)NCc5ccco5)n4c3=O)cc2C)c1`, which Potency is on record?
A: active: 35.5 µM

Q: For `COc1ccc(-c2cccc(C(=O)N3CCC(NC(=O)Nc4ccc(Cl)cc4)CC3)c2)nn1`, which Potency is on record?
A: active: 44.7 µM

Q: Which Potency does the source give for `CN(Cc1ccccc1)Cc1cn([C@H]2CO[C@H]3[C@@H]2OC[C@@H]3NCC2CCCCC2)nn1` here?
A: inconclusive: 100 µM [inhibitor, partial curve, poor fit]

Q: Which Potency does the source give for `Cc1ccc(C(=O)N2CCC3(C2)NC(=O)c2ccccc2CO3)cc1` (stereo not given) here?
A: inconclusive: 79.4 µM [inhibitor, partial curve]

Q: For `CCOc1ccccc1CN1CCCOCCNC(=O)CC1`, which “activity change, negative = cytotoxicity” value is on record?
A: inactive: 4.71%

Q: For `COc1cccc(N2C(=O)NC(=NC3CCCCC3)C23CCCN([S+](=O)([O-])c2cccc(C(F)(F)F)c2)C3)c1` (stereo not given), which Potency is on record?
A: inconclusive: 50.1 µM [inhibitor, partial curve, poor fit]

Q: Which “activity change, negative = cytotoxicity” value does the source give for `CCS(=O)(=O)N1CCCC(c2nc(C(C)C)no2)CCNC(=O)CC1` (stereo not given) here?
A: inactive: -16.1%

Q: For `COc1ccc(OC)c(-c2n[nH]c3c2CC(=O)N(CCOc2ccccc2)C3)c1`, which Potency is on record?
A: inconclusive: 100 µM [inhibitor, partial curve]

Q: For `CCC1Oc2ccc(NC(=O)COc3ccccc3)cc2CN(Cc2cc(F)cc(F)c2)C1=O` (stereo not given), which Potency is on record?
A: inconclusive: 35.5 µM [inhibitor, full curve, poor fit]

Q: Which Potency does the source give for `Cc1ccc(C(=O)N2CCC(n3cc(-c4nc(-c5ccccc5)no4)nn3)C2)cc1C` (stereo not given) here?
A: active: 44.7 µM

Q: With `O=C(c1ccc(F)c(Cl)c1)N1CCN(c2cc(-c3ccccc3)[nH]n2)CC1` as the compound, how does the Potency read?
A: inconclusive: 56.2 µM [inhibitor, partial curve, poor fit]

Q: For `Fc1ccc(NC(=S)N[C@H]2CO[C@H]3[C@@H]2OC[C@@H]3n2nnnc2-c2ccc3c(c2)OCO3)cc1`, which Potency is on record?
A: inconclusive: 89.1 µM [inhibitor, single point]

Q: For `O=C(Nc1cccc(Cl)c1)c1cnc2c(c1)N([S+](=O)([O-])c1cccnc1)CCC2`, which Potency is on record?
A: active: 100 µM

Q: Which Potency does the source give for `COc1cccc(-c2c(C(=O)NCc3ccccc3Cl)nc3sccn23)c1` here?
A: inconclusive: 50.1 µM [inhibitor, partial curve, poor fit]

Q: With `CNC(=O)Nc1ccc(C)n(CC(=O)NCc2ccccc2F)c1=O` as the compound, how does the “activity change, negative = cytotoxicity” value read?
A: inactive: -8.17%

Q: Which “activity change, negative = cytotoxicity” value does the source give for `O=C(Cc1ccsc1)N1CCC2(CC1)CC(OCC1CC1)CCO2` (stereo not given) here?
A: inactive: 7.56%

Q: With `CC(c1ccc(-c2cc(N)ncn2)cc1)N1CCCCC1` (stereo not given) as the compound, how does the “activity change, negative = cytotoxicity” value read?
A: inactive: -1.11%

Q: For `Cc1ccc(S(=O)(=O)N2CCN(C3CCN(Cc4cccnc4)C3=O)CC2)cc1C` (stereo not given), which “activity change, negative = cytotoxicity” value is on record?
A: inactive: -39.6%

Q: For `Cc1cn2nc(C(=O)NCc3ccccc3F)cc2c(N2CCSCC2)n1`, which “activity change, negative = cytotoxicity” value is on record?
A: inactive: -12.8%

Q: With `CN1CC(=O)N(C2CCNC2)Cc2c(NC3CCCCCC3)ncnc21` (stereo not given) as the compound, how does the “activity change, negative = cytotoxicity” value read?
A: inactive: -18%

Q: For `O=[S+]([O-])(Nc1cccnc1)c1ccc2c(c1)OCCN(Cc1ccsc1)C2`, which Potency is on record?
A: inconclusive: 35.5 µM [inhibitor, full curve]

Q: With `Cc1nc(CN2C(=O)OC3(CCN(C(=O)c4cccnc4)CC3)C2(C)c2ccccc2)cs1` (stereo not given) as the compound, how does the “outcome” value read?
A: inactive

Q: For `COCCN1CC(C(=O)N2CCN(c3ncccc3C#N)CC2)CCC1=O` (stereo not given), which “activity change, negative = cytotoxicity” value is on record?
A: inactive: 2.98%

Q: With `COc1ccc(CCC(=O)N2CCCN(c3cc(-c4ccc(OC)cc4)[nH]n3)CC2)cc1` as the compound, how does the Potency read?
A: inconclusive: 89.1 µM [inhibitor, partial curve, poor fit]

Q: With `NCCc1noc(-c2ccccc2)n1` as the compound, how does the Potency read?
A: inconclusive: 89.1 µM [inhibitor, single point]

Q: With `COc1cc([C@@H]2c3cc4c(cc3[C@H](O)[C@@H](CO)[C@@H]2C(=O)NC2CCCC2)OCO4)cc(OC)c1OC` as the compound, how does the Potency read?
A: inconclusive: 10 µM [inhibitor, full curve, poor fit]

Q: Which Potency does the source give for `COc1ccc(CN2CCCC3(C2)C(=NC2CCCC2)NC(=O)N3c2cccc(OC)c2)cc1` (stereo not given) here?
A: inconclusive: 79.4 µM [inhibitor, partial curve, poor fit]

Q: Which “outcome” value does the source give for `CNCc1cn(C[C@H]2O[C@@H](CC(=O)N3CCC[C@@H]3COC)[C@H](O)[C@@H]2O)nn1` here?
A: inactive [at 172 µM]

Q: Which Potency does the source give for `O=C(Nc1cccc(F)c1)c1cnc2c(c1)N(C(=O)CCc1ccccc1)CCC2` here?
A: inconclusive: 79.4 µM [inhibitor, partial curve, poor fit]

Q: Which Potency does the source give for `COCCNC(=O)c1ccc(OC2CCN(Cc3cccc(SC)c3)CC2)c(Cl)c1` here?
A: inconclusive: 50.1 µM [inhibitor, partial curve, poor fit]

Q: For `O=C(c1ccccc1Cl)N1CCN(c2nccc(Nc3ccccc3F)n2)CC1`, which Potency is on record?
A: inconclusive: 44.7 µM [inhibitor, partial curve, poor fit]

Q: For `O=C(Nc1cccc(F)c1)Nc1ccc(=O)n2c1[C@@H]1C[C@@H](CN(C(=O)COc3ccccc3)C1)C2`, which Potency is on record?
A: inconclusive: 50.1 µM [inhibitor, partial curve, poor fit]

Q: For `O=C(c1cc(F)cc(F)c1)N1CC(c2nc(CCc3ccccc3)no2)C1`, which Potency is on record?
A: inconclusive: 89.1 µM [inhibitor, single point]

Q: With `CNC(=O)c1cc(C2CC2)nc2c1c(C1CCCN(C(=O)Cc3ccccc3)C1)nn2C` (stereo not given) as the compound, how does the “activity change, negative = cytotoxicity” value read?
A: inactive: -6.34%

Q: Which Potency does the source give for `CCc1nn(-c2ccccc2)c(Oc2ccccc2OC)c1CCC(=O)NCC1CC1` here?
A: inconclusive: 79.4 µM [inhibitor, partial curve, poor fit]

Q: With `CC(C)NC(=O)c1ccc(-c2nnc3ccc(NC(=O)C4CCC4)cn23)cc1` as the compound, how does the Potency read?
A: inconclusive: 89.1 µM [inhibitor, single point]

Q: With `Cc1ccc(CN2C(=O)NC3(CCN(C(=O)Cc4cccc(F)c4)CC3)C2=O)cc1` as the compound, how does the Potency read?
A: inconclusive: 44.7 µM [inhibitor, partial curve, poor fit]

Q: Which Potency does the source give for `CN(C)c1ccc(C(=O)N[C@H]2C[C@@H](c3nc(-c4ccc5c(c4)OCO5)no3)N(C)C2)cc1` here?
A: inconclusive: 50.1 µM [inhibitor, partial curve, poor fit]

Q: Which Potency does the source give for `Cc1ccc(-c2noc([C@@H]3C[C@H](NC(=O)CC(C)(C)C)CN3C)n2)cc1` here?
A: active: 89.1 µM

Q: With `CC(C)CNc1ccc2c(n1)C(C)(C(=O)NCCc1cnc[nH]1)CN(Cc1ccccc1)C2` (stereo not given) as the compound, how does the Potency read?
A: inconclusive: 44.7 µM [inhibitor, partial curve, poor fit]
